Assay results from the supplement of paper PMC3656093.
“And” between values parts separate entries of the source, which are not always exact repeats. Equal values may be shown once. ± gives the standard deviation of the averaged measurements. Whole data set: some 1,900 compounds, median “CD40L-induced NF-kB luciferase activity, plate-corrected, relative to DMSO (0) and IKK inhibitor VII (-100) controls” near 0.032, cut for the lowest 2% near -26. The list shows a part of the results.

What follows are compounds tested on BL2-NFkB-Luc (assay: CD40L-induced NF-kB luciferase activity, plate-corrected, relative to DMSO (0) and IKK inhibitor VII (-100) controls (% normalized activity); higher = more NF-kB reporter activity (less inhibition)). Conditions: 9.4 µM; stimulus: tCD40L 64 ng/ml; 4.5 h.
Method: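 BL2 B cells with a stable NF-kB response-element luciferase reporter (BL2-NFkB-Luc), 384-well. Cells were pre-incubated with compound at 9.4 uM for 1 h at 37 C, then stimulated with 64 ng/ml trimerized CD40L for 4.5 h; luciferase was read with Steady-Glo. Signal was normalised per plate in Genedata (median DMSO neutral control = 0, median IKK inhibitor VII at 50 uM = -100) with Assay Median plate-pattern correction; duplicate plates.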

Structure (SMILES) | CD40L-induced NF-kB luciferase activity
C=C1[C@@H](C)[C@H]2[C@H](Cc3ccccc3)NC(=O)[C@]23OC(=O)C=C[C@H](O)CCC[C@@H](C)CC=C[C@H]3[C@@H]1O | -1.12 ± 2.1
CCCC(=O)OCC[N+](C)(C)C | -5.48 ± 4.7
CC(=O)c1ccc(-c2ccccc2)cc1 | 32.8 ± 15
CN(C)C(=O)Oc1cccc([N+](C)(C)C)c1 | 1.42 and 0.748
CNC(=O)Oc1ccc2c(c1)[C@]1(C)CCN(C)[C@@H]1N2C | -0.043 ± 7.8
CCN(CC)CCOC(=O)C(O)(c1ccccc1)c1ccccc1 | -6.57 ± 6.9
Cc1ccc2c(c1)C1CN(C)CCC1N2C(=O)Nc1cccc(Cl)c1 (stereo not drawn) | -6.16 ± 2.1
C[C@]12CC[C@@H]3c4ccc(O)c(O)c4CC[C@H]3[C@@H]1CC[C@@H]2O | -22.9 ± 18
O=C1C=Cc2ccccc2C1=O | 4.88 ± 5.5
Cc1cc(Cl)ccc1OC(C)C(=O)O (stereo not drawn) | -1.09 ± 4.6
CC(=O)Nc1cc([As](=O)(O)O)ccc1O | -3.64 ± 1.8
O=c1[nH]c2ccccc2n1C1CCN(CCCC(c2ccc(F)cc2)c2ccc(F)cc2)CC1 | -6.94 ± 4.2
CC(C)C[C@H]1C(=O)N2CCC[C@H]2[C@]2(O)O[C@](NC(=O)[C@@H]3C=C4c5cccc6[nH]c(Br)c(c56)CC4N(C)C3)(C(C)C)C(=O)N12 (stereo partly drawn) | 3.22 ± 1.5
CC12CN3CC(C)(CN(C1)C3c1cccnc1)C2=O (stereo not drawn) | 0.834 ± 3.5
C[C@]12CCC(=O)C=C1CCC1C2CC[C@@]2(C)C1CC[C@@]2(O)CC#N (stereo partly drawn) | -0.607 ± 3.7
CN[C@H](C)[C@H](O)c1ccccc1 | -2.12 ± 1.3
CN(C)C(=O)Oc1ccc[n+](C)c1 | 1.38 ± 1.9
NC1CCCCC1N.[Cl][Pt][Cl] (stereo not drawn) | 2.03 ± 0.47
O=Cc1cn(Cc2ccc(F)cc2)c2ccccc12 | 3.44 ± 1.6
CC(C)C(=O)Nc1ccc(S(=O)(=O)N2CC3CC(C2)c2cccc(=O)n2C3)cc1 (stereo not drawn) | -4.66 ± 7
c1ccc2c(c1)[nH]c1cnccc12 | -5 ± 7.4
COc1ccccc1CN1CCCCC1c1cccnc1 (stereo not drawn) | -4.15 ± 3.3
CC12CN3CC(C)(CN(C1)C3c1cccs1)C2=O (stereo not drawn) | 2.17 ± 3.5
Nc1ccc([As](=O)(O)O)cc1 | -6.29 ± 2.6
C[C@H]1OC[C@@H](C[N+](C)(C)C)O1 | -0.99 ± 1.9
O=C1CSC2N1CCNC21CCCCC1 (stereo not drawn) | -1.57 ± 5.5
COc1cccc(Oc2c(C)oc3cc(OC(=O)N(C)C)ccc3c2=O)c1 | -9.76 ± 10

Structure (SMILES) | CD40L-induced NF-kB luciferase activity
COc1ccc(CN2CC3CC(C2)c2cccc(=O)n2C3)cc1OC (stereo not drawn) | -5.62 ± 3.4
COc1ccc(OC)c(C(O)C(C)N)c1 (stereo not drawn) | 0.245 ± 1.3
CCCC(C)(COC(N)=O)COC(=O)NC(C)C (stereo not drawn) | -7.09 ± 4.2
CN1[C@@H]2CC[C@H]1CC(OC(=O)C1C=Nc3ccccc31)C2 (stereo partly drawn) | -2.21 ± 6.7
Oc1ccc(Cl)cc1Cc1cc(Cl)ccc1O | 2.81 ± 3.4
C[C@]12CCC(=O)C=C1CC[C@@H]1[C@@H]2CC[C@]2(C)C(=O)CC[C@@H]12 | 6.57 ± 1.3
OC(c1ccccc1)(c1ccccc1)C1CCNCC1 | -5.63 ± 0.48
COc1ccc(-c2nc3ccccc3c(=O)o2)cc1 | 47.1 ± 21
CCOc1ccc(N2C(=O)NC(=O)/C(=C\c3cc(OC)c(OC)cc3[N+](=O)[O-])C2=O)cc1 | -5.57 ± 0.58
CC(C)CCC1(CN2CCCC2=O)C(=O)NC(=O)NC1=O | -4.01 ± 4.5
CC(=O)[C@H]1CC[C@H]2[C@@H]3CC[C@H]4C[C@H](O)CC[C@]4(C)[C@H]3C(=O)C[C@]12C | 2.9 ± 3.8
COc1ccc(NC2=NCC(C)S2)cc1 (stereo not drawn) | 6.63 ± 2
c1ccc2c3c([nH]c2c1)CNCC3 | -0.0865 ± 4.1
CCN(CC)C(=O)N[C@H]1C[C@@H]2c3cccc4[nH]cc(c34)C[C@H]2N(C)C1 | -15 ± 8.3
CC[C@@H](CO)NC(=O)[C@@H]1C=C2c3cccc4c3c(cn4C)C[C@H]2N(C)C1 | 6.16 ± 0.15
CC12CN3CC(c4ccccc4)(CN(C1)C31CCCCC1)C2=O | -3.79 ± 3.9
c1ccc2c(c1)OCC(C1=NCCN1)O2 (stereo not drawn) | -12.6 ± 6.5
CC[N+]1(C)CCCC(OC(=O)C(O)(c2ccccc2)c2ccccc2)C1 (stereo not drawn) | -3.33 ± 1.4
C[C@H]1CCCC(=O)CCCCCc2cc(O)cc(O)c2C(=O)O1 | -0.417 ± 2.4
CN1C[C@H](CNC(=O)OCc2ccccc2)C[C@@H]2c3cccc4c3c(cn4C)C[C@H]21 | 4.02 ± 2.5
O=C1NCCN2CCCC12 (stereo not drawn) | 5.53 ± 4.5
OCc1cnc[nH]1 | 0.917 ± 1.7
O=c1c2ccccc2nc(/C=C/c2ccc3c(c2)OCO3)n1-c1ccccc1 | 2.16 ± 1.9
C=C1CC[C@@]2(O)[C@H]3Cc4ccc(O)c5c4[C@@]2(CCN3CC2CC2)[C@H]1O5 | 1.69 ± 3.1
O=C(CCCN1CCC2(CC1)C(=O)NCN2c1ccccc1)c1ccc(F)cc1 | -1.12 ± 5.6
C=CC1CN2CCC1CC2[C@@H](OC(=O)c1ccc(OC)cc1)c1ccnc2ccccc12 (stereo partly drawn) | 1.56 ± 2.6
